Experimental findings from article PMC4336329 (PLoS ONE, 2015) are described below.

About 14,000 (4.5%) of roughly 310,000 compounds showed an effect of 50% or more. Effects have a minus sign here. Some of the results follow.
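Also: peak tail current of the secondary pulse compared with the same well before compound.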

For the assay, the target named is human ether-à-go-go-related gene (hERG) potassium channel (human, UniProt Q12809). The assay is described as follows: primary screen, population patch clamp on CHO cells stably expressing hERG.
Chain of human ether-à-go-go-related gene (hERG) potassium channel (Q12809 whole entry, looked up): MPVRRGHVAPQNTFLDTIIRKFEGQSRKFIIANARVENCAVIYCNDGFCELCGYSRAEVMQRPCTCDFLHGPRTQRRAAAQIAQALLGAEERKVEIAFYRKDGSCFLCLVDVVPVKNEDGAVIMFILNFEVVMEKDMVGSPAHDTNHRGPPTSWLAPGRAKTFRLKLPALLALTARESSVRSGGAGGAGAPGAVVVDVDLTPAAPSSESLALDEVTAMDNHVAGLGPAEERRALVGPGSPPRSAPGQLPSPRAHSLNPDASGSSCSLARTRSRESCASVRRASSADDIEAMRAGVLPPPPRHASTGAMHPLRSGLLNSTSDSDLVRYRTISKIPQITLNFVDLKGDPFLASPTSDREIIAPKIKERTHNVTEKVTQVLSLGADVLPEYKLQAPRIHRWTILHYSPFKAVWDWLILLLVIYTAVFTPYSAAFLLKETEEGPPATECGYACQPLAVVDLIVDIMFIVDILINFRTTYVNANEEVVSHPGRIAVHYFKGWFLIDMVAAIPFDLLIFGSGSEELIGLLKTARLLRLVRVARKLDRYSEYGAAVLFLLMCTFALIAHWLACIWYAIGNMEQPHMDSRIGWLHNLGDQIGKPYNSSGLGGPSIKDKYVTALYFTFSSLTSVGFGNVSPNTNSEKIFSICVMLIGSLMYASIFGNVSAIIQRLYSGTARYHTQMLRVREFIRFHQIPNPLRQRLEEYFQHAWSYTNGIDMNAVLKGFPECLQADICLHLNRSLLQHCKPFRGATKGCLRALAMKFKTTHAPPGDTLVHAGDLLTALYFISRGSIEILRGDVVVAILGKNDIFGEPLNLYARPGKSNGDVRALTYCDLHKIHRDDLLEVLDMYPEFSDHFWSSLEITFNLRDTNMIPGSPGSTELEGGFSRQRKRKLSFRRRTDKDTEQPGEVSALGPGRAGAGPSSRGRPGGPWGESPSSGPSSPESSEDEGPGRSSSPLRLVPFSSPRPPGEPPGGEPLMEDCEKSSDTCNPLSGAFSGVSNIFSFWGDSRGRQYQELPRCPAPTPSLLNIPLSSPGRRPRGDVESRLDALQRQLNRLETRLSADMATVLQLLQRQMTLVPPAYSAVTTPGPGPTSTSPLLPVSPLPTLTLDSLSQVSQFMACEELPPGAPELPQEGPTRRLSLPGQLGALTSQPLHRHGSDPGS
In the case of `O=S(=O)(Cc1cccc(C(F)(F)F)c1)c1ncn[nH]1`, the “hERG current change (%, negative = inhibition) at 10uM” value was determined as 17.9%. The value for `COc1ccc2nc(NC(=O)CCN3C(=S)NC(C)(C)CC3C)sc2c1` (centres unmarked) was -2.94%; that for `Cc1cccc(C(=O)NC(=S)Nc2ccc(Cc3ccncc3)cc2)c1` was -9.37%. The value for `COC(=O)C1=C(N)c2c(F)cccc2C1(C#N)c1ccc(F)cc1` (centres unmarked) was -38.2%. The value for `Cl.c1ccc2c(c1)oc1c(Nc3ccc4c(c3)OCO4)ncnc12` was 18.5%; that for `O=C(NN=C1CCCC1)c1[nH]c2ccc(Cl)cc2c1-c1ccccc1` was 7.13%. Turning to `CCOC(=O)Cn1nc(C)n(-c2c(C)cccc2C)c1=O`, the “hERG current change (%, negative = inhibition) at 10uM” value came out at 27.7%. The value for `Cc1ccc(SCCC(=O)NCCSCc2ccccc2C)cc1` was 9.03%; that for `CCOC(=O)c1cnc2cc(-c3ccc(C)cc3)nn2c1-c1ccccc1` was 5.07%. The value for `CCNc1ccc(C(=O)OCC)cc1NC(=O)c1cc(S(=O)(=O)N2CCOCC2)ccc1C` was -10.9%.

`Cc1ccc(S(=O)(=O)NNC(=O)CC#N)cc1`: the “hERG current change (%, negative = inhibition) at 10uM” value was found to be 8.9%. The value for `COc1cc(C(=O)OCC(=O)Nc2ccc3c(c2)OC(F)(F)O3)ccc1OCc1c(C)noc1C` was -0.456%; that for `NC(=O)C1CCN(C(=O)CSc2nc3ccccc3s2)CC1` was 1.43%; that for `CCS(=O)(=O)Nc1ccc(C2=NN(C(=S)Nc3ccccc3)C(c3ccco3)C2)cc1` (centres unmarked) was 1.29%. The value for `Cc1nn(Cc2ccc(Cl)c(Cl)c2)c(C)c1NC(=O)c1cc(C2CC2)on1` was -28.6%; that for `Cc1cccc(C(=O)NCC(=O)Nc2ccncc2)c1` was -4.07%; that for `NC(=O)c1cc2c(s1)-c1cc(Cl)ccc1SC2` was 1.66%. The value for `O=C(c1ccco1)N1CCN(C(=O)C2CC2)CC1` was -11.8%. Regarding `COc1cccc(-c2cc(C(=O)Nc3cccnc3)c3ccccc3n2)c1`, the “hERG current change (%, negative = inhibition) at 10uM” value is -19.9%. As for `CSc1nc(C)nc(C2CC2)c1C#N`, the “hERG current change (%, negative = inhibition) at 10uM” value was 17%. Take `COc1ccc(N2CC(C)Cn3c2nc2c3c(=O)n(Cc3ccc(F)cc3)c(=O)n2C)c(OC)c1` (centres unmarked): the “hERG current change (%, negative = inhibition) at 10uM” value is recorded as -11.2%.

For `CC(C)Cc1ccc(C(=O)NCc2ccc3c(c2)OCO3)o1`, the “hERG current change (%, negative = inhibition) at 10uM” value is 17%. The value for `COc1ccccc1N1CCN(C/C=C/c2ccc(N(C)C)cc2)CC1` was -53.9%; that for `CCNC(=O)CSc1nnc(-c2cc(-c3ccc(Cl)cc3)nc3ccccc23)o1` was -82.3%; that for `N#CCOC(=O)/C=C/c1ccc2c(c1)OCO2` was 7.2%. The value for `COCCN1CC(C(=O)NCc2ncccc2C)CCC1=O` (centres unmarked) was 22.6%; that for `CCCCC(=O)Nc1ccc(C(=O)NCCN2CCOCC2)cc1` was 8.09%. The value for `COc1ccc(CNC(=O)CN(Cc2ccc(C)cc2)S(=O)(=O)c2ccc(Cl)cc2)cc1` was -50.9%; that for `C=CCn1c(=O)c2c(nc3n2CCCN3CCc2ccccc2)n(C)c1=O` was -19.8%. As to `COc1ccc(CCn2c(N)c(C(=O)NCc3ccco3)c3nc4ccccc4nc32)cc1`, the “hERG current change (%, negative = inhibition) at 10uM” value was determined as 0.65%. The value for `CN(C)S(=O)(=O)Oc1ccccc1C(=O)Nc1cccc(C(F)(F)F)c1` was -22.5%; that for `O=S(=O)(c1ccc(Br)s1)N1CCN(c2ccccc2)CC1` was 2.15%; that for `COc1cc(NC(=O)c2cc([N+](=O)[O-])ccc2Br)ccc1NC(=O)c1ccco1` was 13.2%.

Regarding `Cc1ccc(-c2ccc(=O)n(CC(=O)NCC3COCCO3)n2)cc1` (centres unmarked), the “hERG current change (%, negative = inhibition) at 10uM” value turned out to be 23%.

As for `CCCCn1c(N)c(N2CCOCC2)c(=O)n(CC(=O)NCCc2ccccc2)c1=O`, the “hERG current change (%, negative = inhibition) at 10uM” value worked out at 17.6%. With `COc1cc(/C=N/NC(=O)c2c(-c3ccccc3)noc2C)cc(OC)c1OC`, the “hERG current change (%, negative = inhibition) at 10uM” value is reported as -46.5%. The value for `COc1cc(/C(C)=N/NC(=O)CSc2nnc(C)s2)ccc1O` was 3.91%; that for `CC(C)c1nnc(NC(=O)CCCCCN2C(=O)C3C4C=CC(C4)C3C2=O)s1` (centres unmarked) was -20.3%. With `CC(=O)Nc1ccc(S(=O)(=O)N(C)CC(=O)OCC(=O)N2CCCC2=O)cc1`, the “hERG current change (%, negative = inhibition) at 10uM” value was -2.45%. The value for `O=C(CN1C(=O)COc2ccc(S(=O)(=O)N3CCCCC3)cc21)NCc1ccc(Cl)cc1` was 18.3%; that for `Cc1ccc(NC(=O)Nc2ccc3c(c2)nc(C)n3C)cc1` was -0.433%. The value for `O=C(NCc1ccccc1C(F)(F)F)C1CC(c2ccc(C(F)(F)F)cc2)=NO1` (centres unmarked) was 2.97%; that for `CC(C)C(=O)NC(=S)Nc1ccccc1N1CCN(C(=O)c2ccccc2)CC1` was 11.6%. The value for `Cn1ccnc1Sc1ccccc1[N+](=O)[O-]` was 16.3%.
